Reference: PubChem BioAssay AID624417 (National Center for Advancing Translational Sciences (NCATS), 2012)
The whole screen tested about 410,000 compounds, of which about 6,400 (1.6%) were called active. Inconclusive results, whose numbers are uncertain, are shown with a selection of clear calls. Calls come from the whole dose curve; as a rule, active = well fitted inhibition curve with a large enough effect; inconclusive = small, poorly fitted or top-dose-only effect; inactive = no such curve, though single readings can be large or run the other way. Potencies of inconclusive entries are left out as doubtful fits.

What follows are molecules tested against Glucagon-like peptide 1 receptor (Homo sapiens) (UniProt P43220) (assay: qHTS of GLP-1 Receptor Inverse Agonists (Inhibition Mode)). Settings: HEK293 GLP-1R CRE-luciferase, luminescence, 24 h, GLP-1R form is constitutively active; series mostly up to 38.3 µM.
How it was run: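 Cells are plated, allowed 12 hours at 37 deg C, then treated with compounds for 24 hr before luciferase detection reagent is added and luminescence is read after 12 min at room temperature. The HEK293 line carries constitutively active GLP-1R with a cAMP-responsive reporter.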
Note: nearly all actives have a fitted effect of over 55% in size.
Potency is the fitted concentration of half-maximal effect; tags give direction and shape of the fitted curve.

Chain of UniProt P43220 (P43220 whole entry, looked up): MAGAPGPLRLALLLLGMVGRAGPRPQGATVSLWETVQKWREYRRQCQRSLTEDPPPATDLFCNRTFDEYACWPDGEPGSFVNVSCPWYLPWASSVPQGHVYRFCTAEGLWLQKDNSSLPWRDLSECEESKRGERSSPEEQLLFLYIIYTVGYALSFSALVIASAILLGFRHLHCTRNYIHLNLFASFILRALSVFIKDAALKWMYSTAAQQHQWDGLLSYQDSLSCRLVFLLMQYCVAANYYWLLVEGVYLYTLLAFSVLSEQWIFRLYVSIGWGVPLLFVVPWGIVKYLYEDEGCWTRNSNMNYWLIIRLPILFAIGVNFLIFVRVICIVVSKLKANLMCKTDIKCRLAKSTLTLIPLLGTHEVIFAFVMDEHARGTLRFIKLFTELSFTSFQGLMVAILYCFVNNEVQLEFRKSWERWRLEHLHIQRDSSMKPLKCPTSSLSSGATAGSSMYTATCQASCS

SMILES	Potency
Cc1ccc2c(c1)C1NC(=S)NC(C)(O2)C1C(=O)Nc1ccc(Cl)cc1 (configuration not stated)	inconclusive [inhibitor, single point]
CCOC(=O)c1c(NC(=O)CSc2nnc(-c3c[nH]c4ccccc34)n2CCOC)sc2c1CCCCC2	inconclusive [inhibitor, partial curve, poor fit]
CN(Cc1ccc(F)cc1)C(=O)c1cc(COc2ccc(F)cc2F)on1	inconclusive [inhibitor, single point]
O=C(CN1CCN(S(=O)(=O)c2ccc(Br)cc2)CC1)Nc1ccc(F)cc1	inconclusive [inhibitor, single point]
COc1cccc(CNC(=O)COC(=O)C23CC4CC(CC(Cl)(C4)C2)C3)c1	inactive
CCOc1ccc(Br)cc1CNCCSc1nnnn1-c1ccccc1	inconclusive [inhibitor, partial curve, poor fit]
O=C(CSCc1ccccc1F)NCc1ccccc1	inactive
Cc1cccc(C2=NN(c3ccccc3)[C@@H](C(=O)N3CCOC3=O)[C@@H]2c2ccccc2)c1	inconclusive [inhibitor, single point]
Cc1ccc(-c2nc(-c3cccnc3)no2)c(C)c1	inactive
CC(C)NC(=O)C1(C)CN(S(C)(=O)=O)CC(=O)N1C1CCCCCC1 (configuration not stated)	inactive
CC(C)CC1C(=O)N(Cc2cn(Cc3ccco3)nn2)CCS(=O)(=O)N1Cc1ccc(-c2ccc(F)cc2)cc1 (configuration not stated)	inconclusive [inhibitor, single point]
COc1ccc2nc3sc(C(=O)NCCCN4CCc5ccccc5C4)cc3cc2c1	inconclusive [inhibitor, single point]
Cc1ccc(S(=O)(=O)c2nc(-c3ccco3)oc2SCC(C)C)cc1	inconclusive [inhibitor, single point]
COc1ccc(C(=O)NNC(=O)CSc2nc(C(C)C)nc3ccccc23)cc1	inconclusive [inhibitor, partial curve, poor fit]
Cc1ccc(NS(=O)(=O)c2ccc(NC(=O)CSc3ccc(Cl)cc3)cc2)c(C)c1	inconclusive [inhibitor, full curve, poor fit]
Cc1c(NC(=O)COC(=O)c2cc(-c3ccc(-c4ccccc4)cc3)nc3ccccc23)c(=O)n(-c2ccccc2)n1C	inconclusive [inhibitor, full curve, poor fit]
c1ccc(-c2cnnc(N3CCCCC3)n2)cc1	inactive
CCCCOc1ccccc1NC(=O)CC1SC(=NCC)N(CC)C1=O (configuration not stated)	inconclusive [inhibitor, single point]
CC1CCCCN1C(=O)CSc1nc(C2CC2)nc2ccccc12 (configuration not stated)	active: 7.94 µM
COc1ccc(-c2oc(NC(=O)CCl)c(C#N)c2-c2ccc(OC)cc2)cc1	active: 2.24 µM
Cc1cc2c(cc1C)NC(CC(=O)Nc1ccccc1SC(F)(F)F)C(=O)N2 (configuration not stated)	inactive

SMILES	Potency
CC(C)(C)c1ccc(C(=O)Nc2cccc([N+](=O)[O-])c2)cc1	inconclusive [inhibitor, partial curve, poor fit]
O=C(CN(c1ccc(F)cc1)S(=O)(=O)c1ccc2c(c1)OCCO2)Nc1ccc2c(c1)OCO2	inconclusive [inhibitor, single point]
Cc1c(C(c2cccc([N+](=O)[O-])c2O)c2c(C)n(C)n(-c3ccccc3)c2=O)c(=O)n(-c2ccccc2)n1C	inactive
CCN(CC)S(=O)(=O)c1ccc(S(=O)(=O)Nc2ccc(C(=O)N3CCCC3)cc2)cc1	inactive
CN(C)c1nc(Oc2ccc(C(=O)OCC(=O)Nc3ccccc3)cc2)nc(N(C)C)n1	inconclusive [inhibitor, single point]
Cc1ccc(CN(C)C(=O)c2cccc(S(=O)(=O)N3CCN(Cc4ccccc4)CC3)c2)o1	inconclusive [inhibitor, single point]
C[C@H](NC(=O)N1CCn2c1nc1ccccc12)C(=O)NC1CCCCC1	inconclusive [inhibitor, full curve]
COc1cccc(-c2ccc(NC(=O)C3CCCN(Cc4nccn4C)C3)cc2)c1 (configuration not stated)	inconclusive [inhibitor, single point]
CCCCNc1c(-c2ccc(OC)c(SC3CCCCC3)c2)nc2ccc(C)cn12	inactive
Cc1cccc(NC(=O)c2ccc(N3CCCCC3)c([N+](=O)[O-])c2)n1	inactive
O=C1CC(N(CCc2ccccc2)C(=S)Nc2ccccc2)C(=O)N1c1ccc(Br)cc1 (configuration not stated)	inconclusive [inhibitor, full curve, poor fit]
CC(C)(C)OC(=O)NCc1ccc(CNC(=O)c2nc[nH]c2C(=O)NCc2ccccc2)cc1	inconclusive [inhibitor, single point]
NCC1CCN(c2nc3ccccc3c3c2CCCC3)CC1	inconclusive [inhibitor, partial curve, poor fit]
CCOc1ccc(N2C(=O)N(Cc3c(F)cccc3Cl)c3ccccc3S2(=O)=O)cc1	inactive
Cc1ccc(O)c(CNc2cccc3cccnc23)c1	inconclusive [inhibitor, single point]
Clc1ccc(C(c2ccccc2)N2CCNCC2)cc1 (configuration not stated)	inconclusive [inhibitor, partial curve]
COc1ccc(CCNC(=O)C2CCN(C(=O)c3ccc(Cl)cc3)CC2)cc1	inconclusive [inhibitor, single point]
COC(=O)c1cc(C)sc1NC(=O)C1C2C=CC(CC2)C1C(=O)O (configuration not stated)	inactive
COc1ccc(CCN=C(C)C2=C(O)C(c3ccccc3)OC2=O)cc1OC (configuration not stated)	inconclusive [inhibitor, single point]
COc1ccc(OC)c(NC(=O)CN2C(=O)C(C)N(c3ccc(C)cc3)C2=O)c1 (configuration not stated)	inconclusive [inhibitor, single point]
COc1ccc(N(Cc2cccs2)C(=O)COc2ccc(C(C)C)cc2)cc1	inconclusive [inhibitor, single point]
